From the supplement of paper PMC10126150
Sequences with one replicate were seen in a single cluster, so their values are uncertain.

Test system: ATP
Test: switch fluorescence ratio, 500 uM ATP over buffer (Cy3 cluster intensity, sum of 5 cycles each) (fold (ratio)); higher = stronger signal-on switching upon ATP binding; sequences stand for … in TCGTCGGCAGCGTCAGATGTGTATAAGAGACAGTTTTTTTTTTTTTTTTTTTTTTTTT…TC
Details: aptamer strand: ATP DNA aptamer (quencher-CACCTGGGGGAGTATTGCGGAGGAAGG + anchor), 100 nM annealed; ATP concentration: 500 uM; one replicate
Summary of the method: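 Cy3-labelled switching-strand clusters on a modified Illumina MiSeq flow-cell were annealed to 100 nM quencher-labelled ATP aptamer, imaged in selection buffer, then imaged after 15 min with 500 uM ATP at 22 °C. Five buffer/ATP cycles ran, with NaOH stripping and re-annealing between them. The fluorescence ratio is summed target-cycle over summed buffer-cycle Cy3 intensity per cluster, averaged per switch-domain sequence. Clusters outside 100-1000 RFU were excluded.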
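Note: ATP exposure 15 min at 22 °C before imaging.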

TTTGTGTTA
switch fluorescence ratio: 0.98

GCTATGTTTT
switch fluorescence ratio: 0.971

ATCGTAGTTT
switch fluorescence ratio: 0.976

CGTCGATTTG
switch fluorescence ratio: 0.999

GGAGGTGGA
switch fluorescence ratio: 1.02

CAAGCGCTGA
switch fluorescence ratio: 1.02

TTTAGGAG
switch fluorescence ratio: 0.966

TATTCATAGA
switch fluorescence ratio: 1.01

TCGAACTCT
switch fluorescence ratio: 0.976

AACGAGGCTA
switch fluorescence ratio: 1.33

GGGGAAGTAA
switch fluorescence ratio: 1.04

CTATGCGATG
switch fluorescence ratio: 1.06

TGAGGTGTGA
switch fluorescence ratio: 1.06

TCGTGGTTAA
switch fluorescence ratio: 0.946

GAAGCTTTGT
switch fluorescence ratio: 0.996

GTGCAAGAGG
switch fluorescence ratio: 0.988

CAACTGTCGC
switch fluorescence ratio: 1.03

GTAGTCTCAT
switch fluorescence ratio: 0.964

ATGCTATTTA
switch fluorescence ratio: 0.979

GCAGACTTCT
switch fluorescence ratio: 1.01

TTCGTTTCG
switch fluorescence ratio: 0.974

AAAATTCTAC
switch fluorescence ratio: 1.04

ATCATCTGTT
switch fluorescence ratio: 1.02

TTGGTGTGGA
switch fluorescence ratio: 1.03

TCAGTCAGAA
switch fluorescence ratio: 1.01

GTTCCAGATC
switch fluorescence ratio: 0.939

AGACTCCAGA
switch fluorescence ratio: 1.06

CAGGGATGC
switch fluorescence ratio: 1.15

ACAAGTCAAT
switch fluorescence ratio: 1.05

CCTTTTCATC
switch fluorescence ratio: 0.985

TGATAAGTCT
switch fluorescence ratio: 0.987

TCGATGTGG
switch fluorescence ratio: 1.04

GATAATGCTC
switch fluorescence ratio: 1.08

TGTGCTCAGG
switch fluorescence ratio: 1.09

CAATTATGCT
switch fluorescence ratio: 1.01

GTATCCGGGT
switch fluorescence ratio: 0.933

CAACTAGCC
switch fluorescence ratio: 1.15

TTGCGAGTGG
switch fluorescence ratio: 1.01

TAGAAAAAAG
switch fluorescence ratio: 0.991

AAATGGTCTA
switch fluorescence ratio: 0.993

ATTTACGCTG
switch fluorescence ratio: 1.09

GCTGATACCA
switch fluorescence ratio: 0.976

GCGGAAGAGT
switch fluorescence ratio: 0.921

TTTTGAGCGT
switch fluorescence ratio: 0.989

CGCTGATGTT
switch fluorescence ratio: 1.03

GGCTTTAGTC
switch fluorescence ratio: 0.986

GGATCTCCAA
switch fluorescence ratio: 1

CGGTAAGGAC
switch fluorescence ratio: 1.02

ACGTCCAGGA
switch fluorescence ratio: 1.04

AGTATCGCTA
switch fluorescence ratio: 1.01

TTCCATCGCT
switch fluorescence ratio: 1.49

ATTCCTAATC
switch fluorescence ratio: 1.02

GAGCCTGAGT
switch fluorescence ratio: 1.02

TACGATGAAA
switch fluorescence ratio: 0.98

ATCGGGCGT
switch fluorescence ratio: 0.966

TATTATTTGC
switch fluorescence ratio: 1

AAGCCGCAGG
switch fluorescence ratio: 1.4

TCTTCAAAT
switch fluorescence ratio: 0.978

GTAATACAGT
switch fluorescence ratio: 1.02

GGGACTTACG
switch fluorescence ratio: 1.09

TCTGGCTTC
switch fluorescence ratio: 1.22

TTACTTCGAC
switch fluorescence ratio: 1.11

GAGTCCAACG
switch fluorescence ratio: 1.04

GGGTGATTCG
switch fluorescence ratio: 0.977

CGATTATTTT
switch fluorescence ratio: 1

TTAGAATCTT
switch fluorescence ratio: 1.04

AATTGTCCAG
switch fluorescence ratio: 0.971

CACGAACCT
switch fluorescence ratio: 1.7

ATCTGAATGT
switch fluorescence ratio: 0.949

CTTTCAGCGG
switch fluorescence ratio: 0.983

ACCTTATTGC
switch fluorescence ratio: 1.12

AACAAGCCAT
switch fluorescence ratio: 1.03

TCGATGCCTG
switch fluorescence ratio: 1.07

CTGGCTTACT
switch fluorescence ratio: 1.13

CGCATAGAGT
switch fluorescence ratio: 1.08

AGTGTAAG
switch fluorescence ratio: 0.955

GTGCGTTGGT
switch fluorescence ratio: 0.987

CCGGATGATG
switch fluorescence ratio: 1.02

CGGAGGTTAT
switch fluorescence ratio: 1.03

GCTGGTGGTC
switch fluorescence ratio: 1

CTGATCGGTT
switch fluorescence ratio: 1.01

TTTTTCTTTA
switch fluorescence ratio: 1

TAAATCGTTA
switch fluorescence ratio: 1.08

AATGGGTCGA
switch fluorescence ratio: 1

CGCATTTGAG
switch fluorescence ratio: 1.14

CGCGCGCCTA
switch fluorescence ratio: 0.988

GAGCTTCGAG
switch fluorescence ratio: 1.01

CGACAATATT
switch fluorescence ratio: 1.01

GAGGGTAAGT
switch fluorescence ratio: 0.985

ATTGTGGCGT
switch fluorescence ratio: 0.972

TAGCCCGAGG
switch fluorescence ratio: 0.997

ATTGGTGGA
switch fluorescence ratio: 1

GGACGAGCGG
switch fluorescence ratio: 0.963

TTTCACGCCG
switch fluorescence ratio: 1.05

AAGGGGCCAA
switch fluorescence ratio: 1.03

TTTACCTTTC
switch fluorescence ratio: 2.02

CTGGACGGCC
switch fluorescence ratio: 0.972

ACAGTTTTTA
switch fluorescence ratio: 1

TAGGGCGTC
switch fluorescence ratio: 0.975

CAAAGTCGGT
switch fluorescence ratio: 0.966

CTCTTATCGT
switch fluorescence ratio: 0.996

GTGATACCTT
switch fluorescence ratio: 1.12

CGGAAGTACA
switch fluorescence ratio: 1.13

CCTCTACTTG
switch fluorescence ratio: 1.05

GCGCGAATGC
switch fluorescence ratio: 2.11

GCAAAAGCAC
switch fluorescence ratio: 1.18

TACGGACAGC
switch fluorescence ratio: 1.41

TCAGTTTGCA
switch fluorescence ratio: 0.976

ATGTGACATG
switch fluorescence ratio: 1.27

GAGCCACAAA
switch fluorescence ratio: 1.03

GGCGACGTGC
switch fluorescence ratio: 0.983

GGTTTGGTGT
switch fluorescence ratio: 1.04

CTAGCGCCTC
switch fluorescence ratio: 1.11

GAAGGAATTA
switch fluorescence ratio: 1.03

GCCTCAGTCT
switch fluorescence ratio: 0.99

TTACTTTACA
switch fluorescence ratio: 1.24

CCCAGTGACG
switch fluorescence ratio: 1.11

AGCGCAACAT
switch fluorescence ratio: 1.47

TCACGCATAG
switch fluorescence ratio: 1.47

GGGGGACATG
switch fluorescence ratio: 1.07

GAAACTATGA
switch fluorescence ratio: 1.09

GCAATGCTGG
switch fluorescence ratio: 1.63

ATTGGCTTCT
switch fluorescence ratio: 1

CATGCGGGGT
switch fluorescence ratio: 1.02

ACGAGACTCT
switch fluorescence ratio: 1.06

TGTTACGTAT
switch fluorescence ratio: 1.03

GGGGCAACAA
switch fluorescence ratio: 1.06

TCGGGTTTGA
switch fluorescence ratio: 1

ACATTGTGGG
switch fluorescence ratio: 1

TCCTCTTACA
switch fluorescence ratio: 1.18

TAAAGAATCT
switch fluorescence ratio: 1.06

AGACACGTTT
switch fluorescence ratio: 0.972

TCACCCGTTC
switch fluorescence ratio: 1.05

CCCCCTTCGC
switch fluorescence ratio: 1.98

GGGTTATGCA
switch fluorescence ratio: 1.03

TAGGATCCTT
switch fluorescence ratio: 1.02

GGTCTAAGAA
switch fluorescence ratio: 0.973

GTGATAGGTA
switch fluorescence ratio: 1.01

TAAAGGCAAC
switch fluorescence ratio: 1.07

CGTGGGTCGG
switch fluorescence ratio: 0.977

AGGTTAGTCT
switch fluorescence ratio: 1.04

AGCTAGGGAG
switch fluorescence ratio: 0.977

GGGTGCTCTC
switch fluorescence ratio: 0.98

CGAGTAGGTC
switch fluorescence ratio: 1.01

GCCGACAGGT
switch fluorescence ratio: 0.961

ACTTTCCCTT
switch fluorescence ratio: 1.25

TTAACGAGAG
switch fluorescence ratio: 1.04

ATAGAAACCG
switch fluorescence ratio: 1.1

CGTCTAGAAT
switch fluorescence ratio: 0.987

CACGCGGAAA
switch fluorescence ratio: 1.04

ATGCGCGGA
switch fluorescence ratio: 1.02

AGCGGACAGC
switch fluorescence ratio: 1.04

GGTGGGTCCC
switch fluorescence ratio: 0.981

GCAGATGGGT
switch fluorescence ratio: 0.989

TGAAGTAAAG
switch fluorescence ratio: 0.999

ACATCGATTA
switch fluorescence ratio: 1.04

ATGCTTTTCT
switch fluorescence ratio: 0.989
